Experimental data reported in the supplement of paper PMC3334620.
The full ranking holds about 33,000 sequences; the median of “E-score (-0.5 to 0.5)” is about -0.01, and the highest 2% start at about 0.26. The list shows a part of the results.

The sequences below were run against Ste12 (UniProt P13574) (assay: PBM E-score (8-mer binding enrichment) (E-score (-0.5 to 0.5)); higher = stronger / more preferred TF binding; most listed sequences are background and not binding sites). Settings: protein concentration: 200 nM; construct: GST-DNA-binding domain.
Summary of the method: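 PURExpress in vitro transcription/translation supplied GST-tagged yeast transcription factors, either full-length or DNA-binding domain. Applied at about 100-200 nM to universal all-10-mer Agilent arrays double-stranded by primer extension, the bound protein was detected with fluorescent anti-GST. E-scores, modified Wilcoxon-Mann-Whitney statistics, were given by the Universal PBM Analysis Suite to ungapped eight-base words pooled with their reverse complements after masliner normalisation.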

Sequence	PBM E-score
ACAATATG	0.0817
ACATCACC	-0.0996
GCCAGTGA	-0.131
CGCTGAAC	-0.0298
CGCCCAAA	0.023
CAACCCGC	0.116
AACGACGC	-0.0528
ACTCTCCA	-0.141
ATCCCTTC	-0.076
AAGTGCAG	-0.122
CACCTAGG	-0.198
ACCCGATC	0.0578
CGGGACGC	-0.055
AAGAGCTC	-0.0902
CTAGCATC	-0.0457
ACAACTGT	-0.164
AAGAGGGT	-0.282
AGTCAATC	0.111
ATCCCAAT	0.0963
AGAGCGCA	-0.277
AACTCGAC	0.207
AGTGCCTA	-0.311
ACTGCGAG	0.0571
AATTTGGG	0.161
CTTTCGGA	0.0344

Sequence	PBM E-score
AGGAACGC	-0.0196
GAGCATTA	-0.0174
GTGGCAAA	0.0171
ATGGGGGG	-0.19
ACGTGCAC	-0.2
GCCTGAGC	-0.0841
ACTACGGG	-0.0373
ACTACACC	-0.189
AGGTCTCC	-0.0404
CAATAGAA	-0.0727
CTCTCTAA	-0.104
ATCTCCTA	-0.147
CTGAGCCC	-0.104
GACACGTC	-0.234
CTTCAAGA	-0.0442
GATATTAA	0.246
AGCGAGCG	0.0574
GATCTTAC	-0.064
CTCTCTTC	-0.302
AAGCTCAA	-0.168
GCTGAAGC	-0.0602
AGCCCTCC	-0.0764
CGAGGCGA	0.00544
AATACACG	-0.174
AGGCGGAC	-0.0535

Sequence	PBM E-score
CGACATGC	-0.091
AGTTACGA	-0.0238
AACTTTAG	0.0874
CACCGGCA	0.0444
CTGCGTCA	-0.12
AGTTCGTC	-0.0529
ATTGCCTA	-0.2
CGCGTCCC	-0.0346
ATGTATAG	0.0331
AGACTGAC	-0.139
CTTGCCTA	-0.125
ACTGGGCT	0.00192
AGTAATTG	0.0886
GTTAAGGA	0.0282
GCACGCGC	0.0115
ACGAGATC	-0.236
ACGCTCCG	0.0584
GATCTTAA	0.0856
AGGCTTCG	-0.158
AGCACTCA	0.00842
GACATTTA	-0.0124
CATCATCA	-0.0201
AAGGGCGG	0.101
CGTACACG	-0.148
ACCGTAGA	-0.132

Sequence	PBM E-score
AACCACCG	-0.0733
ACGCGGAA	0.0969
CTATCGAA	0.153
GTACTTCA	0.103
CAGCTGCG	-0.0692
CATGCAAA	-0.0225
CATCTCAG	-0.032
ACGACACC	-0.0371
CATAACAC	0.0915
CACCATAG	-0.041
CCAACCTA	-0.0315
AGATGCGG	0.0976
GGCCAAAA	0.0718
GACTTGGA	-0.0904
ATTGTCCC	0.0652
GATAACCC	-0.0707
CGACGAAA	0.0412
CGGTCTGC	-0.153
AATTCCAT	0.095
CAAATGGC	-0.0975
ACGATGAA	0.274
ACCCGGTG	-0.0523
CCGGTATC	-0.143
AACGCAGG	0.0477
CGTTGGAC	-0.203

Sequence	PBM E-score
AAAGAAGA	0.104
ACGGTGGC	-0.0529
AGCAAGTA	0.00728
ACCTGATG	0.0596
ATAGTATC	0.0741
AATGGACC	0.0187
ACAACCCG	0.059
GGCCGCTA	-0.127
AAAACGCA	0.163
ACATTTGC	0.0597
ACAGAATG	0.0528
AAAGCCAG	-0.0237
AATTCGGG	-0.00907
CTGAGGAA	-0.0186
CTGCTATC	0.0704
GGTCTTGA	-0.0759
AGGGTTAA	0.0498
CATCCTAA	-0.104
ACACTACT	0.0391
CGAATCCC	0.0378
AAATTCAA	0.153
TGACTTAA	-0.0893
ACACAAGC	0.0819
CTAGGCCA	-0.187
TCTTGAAA	0.308

Sequence	PBM E-score
CTTTGTAC	-0.0561
ATACCCAT	0.0168
AACACGTG	0.12
ACTGCCAG	-0.0624
GGTCTTAA	-0.0409
CCGCATGA	0.0154
CCCCGTCC	0.0603
AAGCCGCG	0.0912
CAGCCAGG	-0.179
ACGCCATA	-0.0497
CCTCTAGC	-0.177
CATGACAA	0.0209
GAGAATAC	0.0523
AAGGCGCA	-0.156
GTAAACGA	-0.0567
AACCGGCC	-0.208
GTGACTGA	-0.0477
GCGAGAAA	0.107
TAACGTCA	0.0318
CTGGGGCA	-0.234
AGAACCCC	-0.027
AGAGAAAC	0.088
CCAATGCA	-0.135
CTCGTATA	0.0544
TGTATGAA	0.228

Sequence	PBM E-score
AACTTCAT	0.0947
GGGATTCA	0.00978
CCTGTTCG	-0.082
CCGAAAGG	-0.00094
CACGACGG	-0.0211
CGATAGCC	-0.0372
AGGTGAAT	0.0887
ACATCCAG	0.0306
CCACCTCG	-0.0855
ACTGCCTA	-0.0876
AAAAGTAA	0.287
GAGTAACC	-0.00741
GGAAGGTA	0.0593
GAGGGGCA	0.158
GAAAGATC	-0.0296
GGGGGGAA	-0.089
CTGTATGC	-0.0803
CAATAGGC	-0.0427
CAATGAGG	-0.306
AGTGCTAT	-0.144
GCAGCGAC	0.0544
GGTTGCCA	0.0827
